Experimental data: PubChem BioAssay AID624417 (National Center for Advancing Translational Sciences (NCATS), 2012)
Values joined by “and” are separate entries in the source; they are usually repeats but may differ in a detail not shown here. Equal values may be shown once. About 6,400 (1.6%) of roughly 410,000 compounds were called active. The shares of active, inactive and inconclusive entries below differ from those in the screen. The call rests on the fitted dose curve; in most records, active means well fitted inhibition curve with a large enough effect; inconclusive means small, poorly fitted or top-dose-only effect; inactive means no such curve, though single readings can be large or run the other way. Potencies beside an inconclusive call are fits to weak or partial responses and may not hold up.

target: Glucagon-like peptide 1 receptor (Homo sapiens) (UniProt P43220); assay: qHTS of GLP-1 Receptor Inverse Agonists (Inhibition Mode); details: HEK293 GLP-1R CRE-luciferase, luminescence, 24 h, GLP-1R form is constitutively active; activity change, negative = inhibition: at 38.3 µM (top of the series) unless noted; further: nearly all actives have a fitted effect of over 55% in size
UniProt P43220, sequence (P43220 whole entry, looked up): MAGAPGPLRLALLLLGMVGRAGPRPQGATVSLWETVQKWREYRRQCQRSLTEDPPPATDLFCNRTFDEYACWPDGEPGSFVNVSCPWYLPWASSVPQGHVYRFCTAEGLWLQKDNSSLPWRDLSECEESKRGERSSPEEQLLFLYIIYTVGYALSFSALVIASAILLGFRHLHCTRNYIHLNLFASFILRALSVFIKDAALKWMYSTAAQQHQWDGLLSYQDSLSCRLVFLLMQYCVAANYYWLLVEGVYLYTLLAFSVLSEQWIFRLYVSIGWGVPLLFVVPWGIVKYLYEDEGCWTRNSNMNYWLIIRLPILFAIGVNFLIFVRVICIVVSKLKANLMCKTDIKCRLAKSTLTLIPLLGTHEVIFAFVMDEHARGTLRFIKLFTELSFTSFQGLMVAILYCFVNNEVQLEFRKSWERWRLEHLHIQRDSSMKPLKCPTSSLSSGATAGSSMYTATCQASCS
Procedure, shortened: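 HEK293 cells stably co-expressing a cAMP-responsive luciferase reporter and constitutively active GLP-1R were seeded, incubated 12 h, then exposed to compounds for 24 h at 37 C. Luminescence was read 12 min after detection reagent; inverse agonists lower signal.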
On the % scale 0 is the no-effect control and ±100 the full control effect; potency means the concentration at half of the fitted maximal effect; tags describe the fitted curve by direction and shape.

Row | Compound | Potency | activity change, negative = inhibition
1 | Cc1c(CCO)c(=O)n(-c2ccccc2)n1S(=O)(=O)c1c(Cl)cc(Cl)cc1Cl | inconclusive: 25.1 µM [inhibitor, single point] | –
2 | CCOC(=O)CCC(=O)Nc1nnc2n1CCS2 | – | inactive: -2.35%
3 | COc1cccc(OCc2ccc(Cl)cc2)c1C#N | inconclusive: 28.2 µM [inhibitor, single point] | –
4 | CCN1CCN(Cc2ccc(NC(=O)c3ccc(C)c(NC(=O)c4cccc5[nH]ccc45)c3)cc2C(F)(F)F)CC1 | inconclusive: 6.31 µM [inhibitor, partial curve, poor fit] and inconclusive: 28.2 µM [inhibitor, single point] | –
5 | CCCC12CN3CC(C)(CN(C1)C3c1ccc(OC)cc1)C2=O (stereo not drawn) | inconclusive: 10 µM [inhibitor, partial curve] | –
6 | CCOC(=O)C(C)N1C(=O)S/C(=C/c2cc(C)n(-c3ccccn3)c2C)C1=O (stereo not drawn) | active: 10 µM | –
7 | COC(=O)c1sccc1NC(=O)Cc1ccc(Br)cc1 | inconclusive: 12.6 µM [inhibitor, partial curve, poor fit] | –
8 | CC(C)Oc1cccc(C(=O)N2CCCC2)c1 | inconclusive: 25.1 µM [inhibitor, partial curve, poor fit] | –
9 | CC(=O)Nc1cccc(O)c1 | inconclusive: 11.2 µM [inhibitor, single point] | –
10 | COC(=O)C1=C(C(=O)OC)[C@@H]2N(C)c3ccc(OC)cc3[C@@]23C[C@@H](C(=O)OC)N=C3N1 | – | inactive: 0.68%
11 | Oc1ccc(C[C@H]2CN([C@@H](Cc3ccc(O)cc3)CN3CCC[C@@H]3CN3C(=S)NC[C@@H]3Cc3ccccc3)C(=S)N2CCc2ccccc2)cc1 | inconclusive: 6.31 µM [inhibitor, full curve, poor fit] | –
12 | CC1(C)CC2CC(C)(CN2S(=O)(=O)c2cccc(N)c2)C1 (stereo not drawn) | inconclusive: 2 µM [inhibitor, partial curve, poor fit] | –
13 | O=c1cc(-c2ccco2)oc2ccc(Cl)cc12 | – | inactive: -3.73%
14 | O=Nc1c(O)n(Cc2c(Cl)cccc2Cl)c2ccccc12 | inconclusive: 10 µM [inhibitor, partial curve] | –
15 | Fc1ccc(NC(=S)N2CCc3ccccc3C2)c(F)c1 | inconclusive: 10 µM [inhibitor, partial curve, poor fit] | –
16 | CCOC(=O)c1c(C)c(-c2ccccc2)n(CC(=O)NCCCN(CC)CC)c1C | inconclusive: 10 µM [inhibitor, partial curve, poor fit] | –
17 | CC(=O)/C(=N/Nc1cccc(C)c1)N1CCOCC1 | inconclusive: 5.01 µM [inhibitor, partial curve] | –
18 | CC(C)c1ccc(C(C)NCCS(=O)(=O)c2ccc(Br)cc2)cc1 (stereo not drawn) | inconclusive: 12.6 µM [inhibitor, single point] | –
19 | CCn1c2ccccc2c2cc(NC(=O)c3cccc([N+](=O)[O-])c3C)ccc21 | inconclusive: 2.24 µM [inhibitor, full curve] | –
20 | O=C(c1ccccc1)N1CC(COc2ccccc2)OC(c2ccco2)O1 (stereo not drawn) | inconclusive: 11.2 µM [inhibitor, partial curve, poor fit] | –

Row | Compound | Potency | activity change, negative = inhibition
21 | CN(C)c1ccc(/C=C2\SC(N3CCCCC3)=NC2=O)cc1 | inconclusive: 2 µM [inhibitor, partial curve, poor fit] | –
22 | COc1ccc(N2CC(C)Cn3c2nc2c3c(=O)n(Cc3ccccc3F)c(=O)n2C)c(OC)c1 (stereo not drawn) | inconclusive: 28.2 µM [inhibitor, single point] | –
23 | COc1ccc(OCC(=O)N2CCN(c3cccc(Cl)c3)CC2)cc1 | inconclusive: 28.2 µM [inhibitor, single point] | –
24 | COc1cc(OC)cc(-c2nc3ccccc3c(=O)n2OC(=O)c2ccc(Br)cc2)c1 | inconclusive: 11.2 µM [inhibitor, single point] | –
25 | COc1ccc2c(c1)C[C@]1(C)c3ccccc3C(=O)N(Cc3ccccc3)[C@H]21 | inconclusive: 11.2 µM [inhibitor, single point] | –
26 | O=C(c1ccccc1)N1CCN(Cc2c[nH]c3ccccc23)CC1 | inconclusive: 10 µM [inhibitor, partial curve, poor fit] | –
27 | CCC(Oc1ccc(F)cc1)C(=O)Nc1nc2c(s1)CCCC2 (stereo not drawn) | inconclusive: 11.2 µM [inhibitor, partial curve, poor fit] | –
28 | Cc1ccc(C)c(S(=O)(=O)N2CCN(c3nc(CN4CCOCC4)nc4sc(C)c(C)c34)CC2)c1 | inconclusive: 10 µM [inhibitor, partial curve, poor fit] | –
29 | C=CC[C@H](CC(=O)N[C@H](CO)Cc1ccccc1)C(=O)N[C@H](COC(=O)[C@@H](CC=C)Cc1ccc(F)cc1)Cc1c[nH]c2ccccc12 | inconclusive: 14.1 µM [inhibitor, single point] | –
30 | Cc1c(NC(=O)c2cccc(NC(=O)Cc3ccc(Cl)cc3)c2)c(=O)n(-c2ccccc2)n1C | inconclusive: 31.6 µM [inhibitor, single point] | –
31 | Cc1ccc(C(=O)N/N=C(/CC(=O)c2cccs2)C(F)(F)F)cc1 | inconclusive: 5.62 µM [inhibitor, partial curve, poor fit] | –
32 | CC1=CC(C)C2(COC(=O)Nc3ccccc3)COC(C)C1C2C (stereo not drawn) | inconclusive: 11.2 µM [inhibitor, partial curve, poor fit] | –
33 | CCc1ccc(-c2cc(C)no2)cc1S(=O)(=O)NCc1ccco1 | inconclusive: 28.2 µM [inhibitor, single point] and inconclusive: 14.1 µM [inhibitor, single point] | –
34 | COc1cccc(NC(=O)Cn2c(=O)n(Cc3ccc(C(=O)NCc4ccc5c(c4)OCO5)cc3)c(=O)c3ccccc32)c1 | – | inactive: 0.564%
35 | O=C(Cn1nnc(-c2ccccc2NC(=O)c2cccs2)n1)Nc1ccccc1 | inconclusive: 7.94 µM [inhibitor, partial curve, poor fit] | –
36 | Cc1ccc(S(=O)(=O)N2CCCc3cc(NS(=O)(=O)c4ccc(F)cc4)ccc32)cc1 | inconclusive: 28.2 µM [inhibitor, single point] | –
37 | CC(=O)c1c(C)nc(-c2ccc(Cl)cc2)nc1NC(=O)C(C)C | inconclusive: 28.2 µM [inhibitor, partial curve, poor fit] | –
38 | Cc1ccc(S(=O)(=O)Cn2nnnc2C(c2ccccc2)N2CCN(c3ncccn3)CC2)cc1 (stereo not drawn) | inconclusive: 28.2 µM [inhibitor, single point] | –
39 | C/C(CC(=O)Nc1ccc(C)c(Cl)c1)=N\NC(=O)c1ccco1 | inconclusive: 28.2 µM [inhibitor, single point] | –
40 | CCCCOc1ccc(C(=O)NCC(=O)N(C)Cc2nc3ccccc3c(=O)[nH]2)cc1 | inconclusive: 10 µM [inhibitor, partial curve] | –

Row | Compound | Potency | activity change, negative = inhibition
41 | COc1ccc(C2c3c(n(C)c4ccccc34)C(=O)N2CC(=O)Nc2ccc(C)cc2Cl)cc1 (stereo not drawn) | – | inactive: 1.58%
42 | CCCCCCn1c(=O)n2n(c1=O)C[C@]1(OC(=O)Nc3c(C)noc3C)CN(S(=O)(=O)c3ccc(C)cc3)C[C@]1(O)C2 | inconclusive: 11.2 µM [inhibitor, single point] | –
43 | CCc1ccc(CNC(=O)Cn2nc(-c3ccc(Cl)cc3)ccc2=O)cc1 | inconclusive: 10 µM [inhibitor, partial curve] | –
44 | O=C(NCc1ccc(C(F)(F)F)cc1)C12CN(Cc3ccccc3)CC1C(c1cccc([N+](=O)[O-])c1)=NO2 (stereo not drawn) | inconclusive: 10 µM [inhibitor, partial curve, poor fit] | –
45 | CN(C)CC(C)(C)CNC(=O)CC1C(=O)NCCN1Cc1ccc(-c2ccccc2)cc1 (stereo not drawn) | inconclusive: 10 µM [inhibitor, single point] | –
46 | Cc1ccc(COC(=O)c2cc(S(=O)(=O)N3CCOCC3)ccc2C)cc1 | inconclusive: 28.2 µM [inhibitor, single point] | –
47 | CCn1cc(C2=NC(CC(C)C)CO2)c2ccccc21 (stereo not drawn) | inconclusive: 7.08 µM [inhibitor, partial curve, poor fit] | –
48 | COc1cc(Cl)ccc1OCc1cc(C(=O)NCc2cc(C(C)C)no2)no1 | inconclusive: 10 µM [inhibitor, partial curve, poor fit] | –
49 | N#Cc1ccc(CC(=O)c2ccccc2)[nH]c1=O | – | inactive: 2.49%
50 | CCCCCCc1cc2cc(-c3nnc(-c4cccc(Cl)c4)o3)c(=O)oc2cc1O | – | inactive: 10.2%
51 | O=C1NC(c2cccc(Cl)c2)Nc2ccccc21 (stereo not drawn) | inconclusive: 15.8 µM [inhibitor, single point] | –
52 | CCN(C(=O)COC(=O)c1ccccc1O)c1cccc2ccccc12 | inconclusive: 11.2 µM [inhibitor, partial curve, poor fit] | –
53 | Cc1cc(C)n2[nH]c(=O)c(N=Nc3cccc(C(F)(F)F)c3)c2n1 | inconclusive: 14.1 µM [inhibitor, single point] | –
54 | CCOc1ccc(NC(=O)CN(C)C(=O)c2cc3c(s2)CCCCC3)cc1OCC | inconclusive: 20 µM [inhibitor, partial curve, poor fit] | –
55 | O=[N+]([O-])c1ccc2oc(/C=C/c3ccc(O)cc3)nc2c1 | – | inactive: 6.03%
56 | COc1cc(NC(=O)Nc2cccc([N+](=O)[O-])c2)cc(OC)c1 | inconclusive: 28.2 µM [inhibitor, single point] | –
57 | O=C1[C@H]2[C@@H](c3ccc(Cl)cc3)N3C(=O)N(c4cccc(F)c4)C(=O)[C@@]3(Cc3ccc(Cl)cc3)[C@H]2C(=O)N1C1CCCCC1 | – | inactive: 14.9%
58 | Cc1ccc2nc(C3CCN(C(=O)NCc4ccccc4)CC3)[nH]c2c1 | inconclusive: 11.2 µM [inhibitor, partial curve, poor fit] | –
